The campaign covered roughly 48,000 compounds. About 450 (0.94%) were called active. Another 19% or so got no clear call; they are omitted. Calls come from the whole dose curve; as a rule, active = well fitted inhibition curve with a large enough effect; inconclusive = small, poorly fitted or top-dose-only effect; inactive = no such curve, though single readings can be large or run the other way. The list shows a part of the results.
Experiment: Primary qHTS for Identification of Small Molecule Inhibitors of Huntingtin Promoter Activity; note: nearly all actives have a fitted effect of over 50% in size
Settings: HEK293 HTT promoter firefly luciferase reporter (activity 0% = vehicle and -100% = no light), 24 h; series mostly up to 57.5 µM; activity change, negative = inhibition: at the top concentration
Procedure, shortened: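 Luminescence was read after Dual-Glo reagent and a 10 min room-temperature incubation. Values were normalized to vehicle (0% activity) and zero RLU (-100% activity). Reporter HEK293 cells had been exposed to compounds (up to 57.5 uM final) for 24 h.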
For `O=S(=O)(c1ccccc1)c1nnn2c1nc(NCc1ccc(F)cc1)c1sccc12`, the “activity change, negative = inhibition” value was inactive: 8.35%. For `Brc1ccc(-c2nc3ccccn3c2Nc2ccc3c(c2)OCCO3)o1`, the “activity change, negative = inhibition” value was inactive: -20.3%. For `CCOC(=O)c1c(S(=O)(=O)N2CCC(C(=O)NCc3ccc(F)cc3)CC2)c(C)n(C)c1C`, the “activity change, negative = inhibition” value was inactive: -11.2%. With `C=Cc1ccc(Cn2c(C(=O)O)c(CNC3CCCC3)c3ccc(C)cc32)cc1` the “activity change, negative = inhibition” value was inactive: -8.68%. In the case of `Cc1cccc(N(C)C(=O)CCS(=O)(=O)c2ccc3c(c2)oc(=O)n3C)c1`, the activity change, negative = inhibition was inactive: -9.08% [at 11.5 µM]. In the case of `COc1ccc(OCC(=O)NC2CC(=O)N(c3cccc(OC)c3)C2)cc1` (stereo unspecified), the “activity change, negative = inhibition” value was inactive: -17%. In the case of `CCN(CC)CCOc1ccccc1C(=O)CCc1ccccc1`, the “activity change, negative = inhibition” value was inactive: -7.41%. For `COc1ccc(NC(=O)c2cc(S(=O)(=O)N3CCCCCC3)cn2C)c(OC)c1`, the “activity change, negative = inhibition” value was inactive: -4.37%. With `O=C(NCc1ccccc1Cl)C1CCCN(S(=O)(=O)c2cccc3nsnc23)C1` (stereo unspecified) the “activity change, negative = inhibition” value was inactive: -16.5%. For `COc1ccc(OC)c(CNC(=O)c2c3c(nc4ccccc24)C(=O)N(C2CCCCC2)C3)c1`, the “activity change, negative = inhibition” value was inactive: -0.669%. With `CCC(=O)N1CCc2cc(Br)cc(S(=O)(=O)N3CCN(c4ccc(C)cc4)C(C)C3)c21` (stereo unspecified) the “activity change, negative = inhibition” value was inactive: -0.642%. For `CCOC(=O)c1c(C)[nH]c(C)c1S(=O)(=O)N1CCC(C(=O)N2CCN(c3ccccc3)CC2)CC1`, the “activity change, negative = inhibition” value was inactive: -12.7%. For `Cc1ccccc1-c1noc(-c2cccnc2NCc2ccco2)n1`, the “activity change, negative = inhibition” value was inactive: 49.2%. With `CCOCCn1ccc2c(OCC(=O)NCc3ccc(C)cc3)cccc2c1=O` the “activity change, negative = inhibition” value was inactive: 0%. For `CN(C)CCNC(=O)c1ccc2c(c1)N(Cc1ccccc1)C(=O)c1ccccc1S2(=O)=O`, the “activity change, negative = inhibition” value was inactive: -15.3%. In the case of `COc1ccc(-c2cn3nc(N4CCCC(C(=O)Nc5cccc(Cl)c5C)C4)sc3n2)cc1` (stereo unspecified), the “activity change, negative = inhibition” value was inactive: -18.2%. With `O=C1c2[nH]nc(-c3ccccc3O)c2C(c2cccc(O)c2)N1Cc1ccncc1` (stereo unspecified) the “activity change, negative = inhibition” value was inactive: -9.04%. For `O=C(Cn1cc(C(=O)c2ccncc2)c(=O)c2cc(F)ccc21)Nc1ccc(Cl)cc1`, the “activity change, negative = inhibition” value was inactive: -26%. In the case of `COCCCNC(=O)N1[C@H](c2cccs2)[C@@H](C)C(=O)[C@@H](C)[C@@H]1c1cccs1`, the “activity change, negative = inhibition” value was inactive: -23.6%. In the case of `O=C(CN1C(=O)COc2ccc(S(=O)(=O)N3CCCC3)cc21)N1CCN(c2ccc(Cl)cc2)CC1`, the “activity change, negative = inhibition” value was inactive: -21.9%. For `COc1cccc(-n2cc(C(=O)OCc3ccc(F)c(F)c3)c3ccccc3c2=O)c1`, the “activity change, negative = inhibition” value was inactive: -14%. For `C=CC(=O)Nc1cccc(Nc2nc(NC3CCC(N(C)C)CC3)nc3c2ncn3C(C)C)c1` (stereo unspecified), the “activity change, negative = inhibition” value was inactive: -38.2%. With `CCCCNc1nc2c(c(=O)n(C)c(=O)n2C)n1CC(O)COc1ccccc1C` (stereo unspecified) the “activity change, negative = inhibition” value was inactive: -30%. In the case of `Cc1nn(C)c2c1c(C(F)(F)F)cc(=O)n2CC(=O)N1CCCCC1`, the “activity change, negative = inhibition” value was inactive: 9.49%. For `O=C(O)c1cccc(Nc2ncnc3ccc(Br)cc23)c1`, the “activity change, negative = inhibition” value was inactive: -6.72%. For `CCOC(=O)c1c(NC(=O)c2ccc(Br)cc2)sc2c1CCCC2`, the “activity change, negative = inhibition” value was inactive: 14.1%. In the case of `COc1ccc(C(=O)Nc2nnc(S(=O)(=O)N3CCCc4ccccc43)s2)cc1`, the “activity change, negative = inhibition” value was inactive: -1.03%. With `Cc1ccc2nc(-c3cccc(NC(=O)c4ccc(Br)o4)c3)oc2c1` the “activity change, negative = inhibition” value was inactive: 10.3%. With `CCOc1ccccc1-n1nnc(-c2nc(-c3ccccc3C)no2)c1C` the “activity change, negative = inhibition” value was inactive: -3.69%. In the case of `Cc1ccc(NC(=O)CSc2ccc3nnc(CCNS(=O)(=O)c4ccccc4)n3n2)cc1Cl`, the “activity change, negative = inhibition” value was inactive: -11.4%. In the case of `Cc1ccc(Cl)cc1NC(=O)N1CCC(CN2CCCCCC2)CC1`, the “activity change, negative = inhibition” value was inactive: -13.8%. With `Cc1ccc2cc(CN(C)C(=O)c3cccc(Cl)c3)c(=O)[nH]c2c1` the “activity change, negative = inhibition” value was inactive: -33.1%. In the case of `Cc1ccccc1NC(=O)c1cccc2c(=O)c3c([nH]c12)CCCC3`, the “activity change, negative = inhibition” value was inactive: -22.7%. With `Nc1ccc(/C=C/c2ccc(N)cc2S(=O)(=O)O)c(S(=O)(=O)O)c1` the activity change, negative = inhibition was inactive: -2.85% [at 0.739 µM]. For `Cc1cccc(Nc2ccccc2C(=O)O)c1C`, the “activity change, negative = inhibition” value was inactive: 8.57%. For `CCCCC(=O)OCc1cc(=O)n2nc(C3CCCCC3)sc2n1`, the “activity change, negative = inhibition” value was inactive: -13.7%. In the case of `CCC1CN(C(=O)Nc2cc(C)ccc2OC)c2cc(Cl)ccc2O1` (stereo unspecified), the “activity change, negative = inhibition” value was inactive: -18.1%. For `COC(=O)c1ccc(NC(=O)CC2Nc3cc(C)c(C)cc3NC2=O)cc1` (stereo unspecified), the Potency was active: 25.1 µM. For `Cc1cc(C)n(-c2nc3ccccc3nc2Nc2ccc(Cl)c(Cl)c2)n1`, the “activity change, negative = inhibition” value was inactive: -2.13%. With `Cc1cc(C)cc(OCC(=O)NC(Cc2c[nH]c3ccccc23)C(=O)O)c1` (stereo unspecified) the “activity change, negative = inhibition” value was inactive: -24.4%. With `Cc1cccc(OCC(=O)Nc2c(C(=O)N3CCN(c4ccccc4F)CC3)oc3ccccc23)c1` the “activity change, negative = inhibition” value was inactive: -0.532%. With `CCOc1cc(N)c(Cl)cc1C(=O)NCC1CN(Cc2ccc(F)cc2)CCO1` (stereo unspecified) the activity change, negative = inhibition was “inactive”. For `CCCc1cc(=O)n2[nH]c(NC(=O)c3ccccc3Cl)nc2n1`, the “activity change, negative = inhibition” value was inactive: -6.07%. In the case of `CCOC(=O)N1CCN(C(=O)CN(c2cccc(Cl)c2)S(=O)(=O)c2ccccc2)CC1`, the “activity change, negative = inhibition” value was inactive: -17%. In the case of `CCCN(C(=O)c1cc2c(=O)oc3ccccc3c2s1)c1cccc(Cl)c1`, the “activity change, negative = inhibition” value was inactive: -0.255%. With `CCOC(=O)c1ccc(N2C(=O)c3[nH]nc(-c4ccc(OC)cc4)c3C2c2ccccc2Cl)cc1` (stereo unspecified) the “activity change, negative = inhibition” value was inactive: -2.06%. With `O=C(Nc1ccccc1)N(Cc1cccs1)c1ccc(F)cc1` the “activity change, negative = inhibition” value was inactive: -22%. For `CCOC(=O)CSc1nc2cc3c(cc2c(=O)n1CCCC(=O)NCCc1ccc(OC)c(OC)c1)OCO3`, the “activity change, negative = inhibition” value was inactive: -15.4%. With `C[n+]1ccccc1/C=N/O` the “activity change, negative = inhibition” value was inactive: 1.65%. For `COc1cccc(CNC(=O)c2cc(S(=O)(=O)N3CCCCCC3)cn2C)c1`, the “activity change, negative = inhibition” value was inactive: -18.5%. With `CCOC(=O)c1sc(N2C(=O)c3oc4ccc(C)cc4c(=O)c3C2c2ccccc2F)nc1C` (stereo unspecified) the “activity change, negative = inhibition” value was inactive: 5.42%. For `CCc1cccc(NS(=O)(=O)c2ccc3c(c2)n(C)c(=O)c(=O)n3C)c1`, the “activity change, negative = inhibition” value was inactive: -28.2%. With `Cc1ccc(CNC(=O)CCCn2nc(C)c3c(C)n(-c4ccccc4)nc3c2=O)cc1` the “activity change, negative = inhibition” value was inactive: -21.7%. With `CCc1nonc1NC(=O)c1oc2ccc(C)cc2c1C` the “activity change, negative = inhibition” value was inactive: 59.9%. With `CCOc1ccc(N2C(=O)c3n[nH]c(-c4cccs4)c3C2c2cccc(F)c2)cc1` (stereo unspecified) the “activity change, negative = inhibition” value was inactive: -14.3%. For `CCOC(=O)c1ccc(-n2c(-c3ccc(C)cc3)c(C)n3c4c(=O)n(C)c(=O)n(C)c4nc23)cc1`, the “activity change, negative = inhibition” value was inactive: 0.588%. For `COc1ccc(-c2cc(-c3ccc4c(c3)NC(=O)CO4)nc3c2COc2ccc(F)cc2-3)cc1`, the “activity change, negative = inhibition” value was inactive: -7.92%. With `CN(C)c1ccc(-c2nc(-c3ccco3)no2)cc1[N+](=O)[O-]` the “activity change, negative = inhibition” value was inactive: -17.8%. With `CCN(CC)S(=O)(=O)c1ccc2c(c1)N(CC(=O)N1CCN(c3cccc(OC)c3)CC1)C(=O)CO2` the “activity change, negative = inhibition” value was inactive: -15.7%. With `CCOc1ccccc1CNC(=O)c1ccc2c(c1)nc1n2CCCCC1` the “activity change, negative = inhibition” value was inactive: 29.4%. In the case of `Cc1c(Nc2nc3ccccc3n3c(C)nnc23)cccc1C(=O)O`, the “activity change, negative = inhibition” value was inactive: -8.55%.

— PubChem BioAssay AID1508623 (National Center for Advancing Translational Sciences (NCATS), 2021)
Potency is the fitted concentration of half-maximal effect.
